Results as given in patent publication US10273468B2 (priority 2016, dated 2019).
Values after ≈ are worked out from the molar mass of the structure shown. Like-named read-outs stand apart in the source and are kept apart here.

Tests used:
Test in all cases: microbe, parasite or virus in culture
E. coli empty vector = settings: Escherichia coli
[1] = system: E. coli expressing tet(51); settings: Escherichia coli
[2] = system: E. coli expressing tet(X); settings: Escherichia coli
[3] = system: E. coli expressing tet(55); settings: Escherichia coli
[4] = system: E. coli expressing tet(50); settings: Escherichia coli
[5] = system: E. coli expressing tet(56); settings: Escherichia coli
[6] = system: E. coli expressing tet(56); settings: Escherichia coli, read-out: IC50 (growth, liquid culture), E. coli expressing tet(56)

Compound | MIC (E. coli empty vector) [µg/mL] | MIC [1] [µg/mL] | MIC [2] [µg/mL] | MIC [3] [µg/mL] | MIC [4] [µg/mL] | MIC [5] [µg/mL] | IC50 ([6]; tetracycline with two μg/mL anhydrotetracycline) [µg/mL] | IC50 ([6]; tetracycline without anhydrotetracycline) [µg/mL]
CN(C)[C@@H]1C(O)=C(C(N)=O)C(=O)[C@@]2(O)C(O)=C3C(=O)c4c(O)ccc(Cl)c4[C@@](C)(O)[C@H]3C[C@@H]12 [chlortetracycline] | 16 (≈ 33.4 µM) | 512 (≈ 1070 µM) | 256 (≈ 535 µM) | 256 (≈ 535 µM) | 256 (≈ 535 µM) | 512 (≈ 1070 µM) | – | –
CN(C)[C@@H]1C(O)=C(C(N)=O)C(=O)[C@@]2(O)C(O)=C3C(=O)c4c(O)cccc4[C@@](C)(O)[C@H]3C[C@@H]12 [tetracycline] | – | – | – | – | – | – | 8.27 (≈ 18.6 µM) | 47.4 (≈ 107 µM)
